Among all 45,000 compounds or so, about 200 (0.44%) were called active. Not shown: some 7% with an inconclusive outcome. Calls come from the whole dose curve; as a rule, active = well fitted activation curve with a large enough effect; inconclusive = small, poorly fitted or top-dose-only effect; inactive = no such curve, though single readings can be large or run the other way. The list shows a part of the results.
Experiment: qHTS of TDP-43 Inhibitors: NCGC Sytravon Library Screen; note: 0% is about no effect; nearly all actives have a fitted effect of over 55% in size
Settings: yeast TDP-43 toxicity rescue, BacTiter-Glo growth, 24 h; series mostly up to 46.1 µM; growth rescue (activation): at the top concentration
Summary of the method: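 TDP-43-expressing yeast, pregrown in raffinose, seeded at OD600 0.02 in galactose medium with compound for 24 hr at 30 deg C. Growth read by BacTiter-Glo luminescence, so rescue of toxicity appears as activation.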

| Compound | growth rescue (activation) |
| --- | --- |
| O=C(NC1CCCCC1)C(c1ccccc1)N(Cc1ccco1)C(=O)c1csnn1 (configuration not stated) | inactive: 8.53% |
| Nc1ccc(C(=O)OCC(=O)N2CCc3ccccc3C2)cc1[N+](=O)[O-] | inactive: 6.2% |
| CCOc1ccc(CC(C(N)=O)C(N)=O)cc1 | inactive: 4% |
| COc1cccc(CC(NC(C)=O)C(=O)NC2CCN(C(=O)c3ccc(Cl)cc3)CC2)c1OC (configuration not stated) | inactive: 17.5% |
| CCOc1nc(NCCN2CCOCC2)nc(Nc2ccc([N+](=O)[O-])cc2)n1 | inactive: 3.19% |
| O=C(NC1CCCC1)C1CCN(C(=O)c2ccc(Cl)cc2)CC1 | inactive: 8.98% |
| C[C@H](NC(=O)c1ccco1)C(=O)N1CCCC1 | inactive: -41.1% |
| CC(=O)Nc1cccc(-c2ccnc3c2CC(C(=O)Nc2cccnc2)O3)c1 (configuration not stated) | inactive: 4.58% |
| Cc1ccc(NC(=O)CN(C)C(=O)c2ccc(Br)o2)cc1 | inactive: -3.69% |
| CCOc1cc(CNc2nn[nH]n2)ccc1OCC(=O)NC(C)(C)C | inactive: 9.06% |
| Cc1ccc(C)c(C(=O)c2ccccc2NC(=O)c2ccccn2)c1 | inactive: 32.3% |
| CCn1cc(C(=O)NCCc2ccccc2)c(=O)c2cc(S(=O)(=O)N3CCCC3)ccc21 | inactive: 19.4% |
| Fc1cccc(Cl)c1CSC1=NCCS1 | inactive: 8.91% |
| CCS(=O)(=O)N1CCC(C(=O)Oc2ccc(C(=O)OC)cc2)CC1 | inactive: -8.21% |
| Cn1nnc2cc(C(=O)Nc3ccccc3F)ccc21 | inactive: 2.25% |
| CC(CCc1ccccc1)NCC(O)COc1ccccc1 (configuration not stated) | inactive: 8.03% |
| N=c1oc2ccccc2cc1C(=O)Nc1ccc(F)cc1 | inactive: -5.23% |
| Cc1cccc(C)c1NC(=O)C(c1ccccc1)N1CCN(C(=O)c2ccco2)CC1 (configuration not stated) | inactive: 0.838% |
| O=C(Nc1ccc(Cl)c(Cl)c1)Nc1ccccc1C(=O)O | inactive: -1.9% |
| Cc1ccc(NC(/C=C/N(C)C)=C/C(=O)C(F)(F)F)c(C)c1 | inactive: -1.64% |
| Cc1ccc(C(=O)N(C)c2ccc(OCC(=O)N3c4ccc(C)cc4C4CN(C)CCC43)cc2)cc1 (configuration not stated) | inactive: -16% |
| O=C(Nc1cccc2ncccc12)c1ccco1 | inactive: 21.7% |

| Compound | growth rescue (activation) |
| --- | --- |
| COc1ccc(/C=C(/NC(=O)c2ccccc2)C(=O)N2CCCC2)cc1OC | inactive: -10.5% |
| Cc1cccc2sc(NC(=O)[C@H](C)N3C(=O)C4CC=CCC4C3=O)nc12 (some centres not stated) | inactive: 17.4% |
| CCC(=O)Nc1ccc(Br)cn1 | inactive: -11.7% |
| O=C(CN(C(=O)CNC(=O)c1cccs1)c1ccc(F)cc1)NC1CCCCC1 | inactive: 10.1% |
| COCCCN1C(=O)C2C(C(=O)Nc3cc(C)cc(C)c3)C3C=CC2(O3)C1C(=O)NC1CCCCC1 (configuration not stated) | inactive: -7.58% |
| CC(C)(C)N(Cc1ccccc1)C(=O)CSc1ncn[nH]1 | inactive: -4.33% |
| CCOC(=O)C1=C(c2ccccc2)Nc2ncnn2C1c1ccc(C(=O)O)cc1 (configuration not stated) | inactive: 22.2% |
| O=C(CN1C(=O)c2ccccc2S1(=O)=O)Nc1cccc(S(=O)(=O)N2CCOCC2)c1 | inactive: 0.726% |
| CCOC(=O)C(=O)c1c(-c2ccccc2)nc2ccccn12 | inactive: 0.859% |
| COc1ccc(C(C(=O)NC(C)(C)C)N(C(=O)CCC(=O)Nc2ccccn2)C2CCCCC2)cc1 (configuration not stated) | inactive: 7.8% |
| COc1ccc(Cc2nnc(N/N=C/c3ccccc3O)[nH]c2=O)cc1OC | inactive: -7.29% |
| Cc1ccc(S(=O)(=O)c2nc(Nc3ccccc3C#N)sc2Cl)cc1 | inactive: 4.76% |
| Cc1cc(C)nc(CCNC(=O)CC2C(=O)NCCN2Cc2ccc(F)cc2Cl)n1 (configuration not stated) | inactive: 10.8% |
| C=CCN(c1ccccc1OC)S(=O)(=O)c1cccc(C(=O)NCc2ccco2)c1 | inactive: 0.938% |
| Cc1[nH]c2ccc(C(=O)OC(C)C(=O)N(C)C3CCCCC3)cc2c1C (configuration not stated) | inactive: 13.7% |
| CCOc1ccccc1C1c2cc3c(cc2OC(C)(N2CCCC2)C1C)OCO3 (configuration not stated) | inactive: -13.9% |
| CCn1c(SCC(=O)NCCOc2ccccc2)nc2ccccc2c1=O | inactive: 24.5% |
| COCc1nnc(NC(=O)c2ccc(S(=O)(=O)N(C)Cc3ccccc3)cc2)o1 | inactive: 9.21% |
| CCC(C)[C@H](NC(=O)[C@@H]1Cc2ccccc2CN1C(=O)OC(C)(C)C)C(=O)NCC1CCC(C(=O)O)CC1 (some centres not stated) | inactive: 28.2% |
| N#C/C(=C(/O)COc1ccccc1)c1nnc2n1CCCCC2 | inactive: 12.9% |
| O=C(CN1CCN(Cc2cccc3ccccc23)CC1)NCCc1ccccc1 | inactive: 5.91% |
| O=C(NC1CCCCC1)C(c1c(F)cccc1Cl)N(C(=O)c1csnn1)C1CC1 (configuration not stated) | inactive: -5.5% |

| Compound | growth rescue (activation) |
| --- | --- |
| CC(=O)Nc1ccc(S(=O)(=O)N2CCN(CC3CC4C=CC3C4)CC2)cc1 (configuration not stated) | inactive: -11.8% |
| CC1=NNC(=O)C1CCC(=O)N/N=C(\C)c1ccccc1 (configuration not stated) | inactive: -23% |
| COC(=O)c1cc(NS(=O)(=O)c2ccc(N3CCOCC3)c([N+](=O)[O-])c2)cc(C(=O)OC)c1 | inactive: 14.6% |
| CC(=O)NC(Cc1ccc(F)c(F)c1)C(=O)NC1CCN(c2c(Cc3ccccc3)c(C)nc3ncnn23)CC1 (configuration not stated) | inactive: 6.51% |
| COc1ccc(S(=O)(=O)N2CCCC(C(=O)NCc3cccnc3)C2)cc1 (configuration not stated) | inactive: -6.55% |
| COc1ccc(/C=C/C(=O)NCC(=O)N/N=C(/CCC(=O)O)c2ccccc2)cc1 | inactive: 16.6% |
| O=C1NC(NS(=O)(=O)c2ccccc2)(C(F)(F)F)C(=O)N1c1cccc(Cl)c1 (configuration not stated) | inactive: -23.1% |
| C/C(CC(=O)NCc1ccccc1Cl)=N/NC(=O)c1ccccn1 | inactive: -0.816% |
| COc1ccc(NN=Nc2nc3c([nH]2)c(=O)n(C)c(=O)n3C)cc1 | inactive: 6.26% |
| Cc1nc(N2CCN(Cc3ccc4c(c3)OCO4)CC2)c2cc(-c3ccccc3)sc2n1 | inactive: 22.3% |
| CCOC(=O)c1c(NCC(C)C)c2ccccc2[nH]c1=O | inactive: 2.77% |
| O=C(Nc1ccc2c3c(cccc13)CC2)c1cccc([N+](=O)[O-])c1 | inactive: 15% |
| O=C(c1cc(COc2cccc(C(F)(F)F)c2)on1)N1CCc2ccccc2C1 | inactive: 8.18% |
| Cc1ccccc1-n1ncc(C(C)NC(=O)c2ccco2)c1C (configuration not stated) | inactive: 0.656% |
| CCOc1ccc(CCNC(=O)CSc2nnnn2C)cc1OCC | inactive: -6.54% |
| COc1cc([N+](=O)[O-])ccc1NC(=S)NCc1ccccn1 | inactive: 21.7% |
| COC(=O)CNC(=O)CSc1nc2c(sc(=S)n2-c2ccccc2)c(=O)[nH]1 | inactive: 4.22% |
| C=CCNC(=O)/C=C/c1c(F)cccc1Cl | inactive: 21% |
| O=C(Nc1cccc(Cl)c1)C1CCCN(C2=NS(=O)(=O)c3ccccc32)C1 (configuration not stated) | inactive: 27.1% |
| CCCCCCN1CC(=O)N2Cc3[nH]c4ccccc4c3C[C@H]2C1=O | inactive: 9.89% |
| Cc1ccc(NC(=O)CC2CCCC2)c(Br)c1 | inactive: 23.7% |
| CCN(CCn1cccn1)C(=O)c1cc(COc2cc(C)ccc2C)on1 | inactive: 3.83% |

| Compound | growth rescue (activation) |
| --- | --- |
| CC(Oc1cccc(Cl)c1)C(=O)NCc1ccc(S(N)(=O)=O)cc1 (configuration not stated) | inactive: -9.22% |
| C#CC(CC)(CC)NC(=O)c1nn(-c2ccccc2Cl)c(C)cc1=O | inactive: -1.7% |
| O=C(NC1CCCC1)C(c1ccccn1)N(Cc1ccccc1F)C(=O)c1csnn1 (configuration not stated) | inactive: 9.67% |
| Oc1ccc(C=NC2CCCCC2)c(O)c1 | inactive: 23% |
| O=C(CN1CCN(c2ccc(F)cc2)CC1)c1cccs1 | inactive: -11.6% |
| O=C(OC1Cn2c(=O)ccc(=O)n2C1)c1ccccc1 | inactive: 1.76% |
| O=C(NCc1ccc(Cl)nc1)c1csc([C@@H]2C[C@H](O)[C@@H](CO)O2)n1 | inactive: -11.8% |
| O=C(COC(=O)c1cc([N+](=O)[O-])ccc1NCc1ccccc1)NCc1ccccc1Cl | inactive: 21.2% |
| CC1(C)Cc2nc3oc4c(NCCCN5CCOCC5)ncnc4c3cc2CO1 | inactive: -7.42% |
| COc1ccccc1NS(=O)(=O)c1cccc(NS(=O)(=O)c2cc(C(=O)O)ccc2OC)c1 | inactive: 20.1% |
| CCOCCCNC(=S)NCCc1ccccc1 | inactive: 25.7% |
| OC[C@@H]1CN(Cc2ccncc2)C[C@H](n2cnc3c(NC4CC4)ncnc32)O1 | inactive: 10.9% |
| CCCc1nnc(SCC(=O)NC2CC2)n1C | inactive: 2.19% |
| Cc1onc(-c2ccccc2Cl)c1C(=O)N1CCC(C(N)=O)CC1 | inactive: -4.77% |
| CCN(c1ccccc1)S(=O)(=O)c1ccc(N2CCN(c3ccc(O)cc3)CC2)nc1 | inactive: 17.6% |
| Cc1ccc(-c2nc(Nc3ccc(O)cc3)c3ccccc3n2)cc1 | inactive: 2.69% |
| FC(F)(F)c1ccccc1NC(=S)Nc1ccccc1 | inactive: -9.4% |
| O=S(=O)(NCc1nnc2ccccn12)c1ccc(F)cc1 | inactive: -7.73% |
| CCN(CC)S(=O)(=O)c1ccc(C)c(NC(=S)NC2CCCCC2)c1 | inactive: -29.4% |
| CCOC(=O)C(NC(=O)c1ccc(OC)cc1)(N1CCCC1=O)C(F)(F)F (configuration not stated) | inactive: 1.21% |
| CCC1(C)Cc2ccccc2-c2c1c(=O)n(Cc1ccccc1)c1nnnn21 (configuration not stated) | inactive: -26.7% |
| Cc1ccc(NC(=S)Nc2cccc(-c3n[nH]c(=S)o3)c2)cc1 | inactive: 16.3% |

| Compound | growth rescue (activation) |
| --- | --- |
| Cc1cc(NC(=O)Cn2cnc3c2c(=O)n(C)c(=O)n3C)n(-c2ccccc2)n1 | inactive: -17.9% |
| COc1cccc(C2C(C#N)=C(N)Oc3cc(N)ccc32)c1OC (configuration not stated) | inactive: 25.3% |
| O=C(Nc1nc(-c2ccc(F)c(F)c2)cs1)c1ccc(OCC2CCCO2)cc1 (configuration not stated) | inactive: -12.6% |
| O=C(NCC(=O)N1CCOCC1)c1ccccc1 | inactive: 18.2% |
| Cc1cc(C)cc(NC(=O)N2CCN(C/C=C/c3ccccc3)CC2)c1 | inactive: 6.31% |
| CC(C)COC(=O)C(C)Nc1n[nH]c(=S)[nH]c1=O (configuration not stated) | inactive: -21.8% |
| Cc1ccc(-c2cnc(C(O)c3ccc(Cl)c(Cl)c3)[nH]2)cc1 (configuration not stated) | inactive: -0.307% |
| O=C(Nc1ccccc1)c1cc(C2CCCN(C(=O)C3CC3)C2)on1 (configuration not stated) | inactive: 9.66% |
| C=CCn1cc(C(=O)N2CCN(C)CC2)c(=O)c2cc(S(=O)(=O)N(CC)CC)ccc21 | inactive: 0.466% |
| O=C(O)C1CCN(Cc2cccnc2)CC1 | inactive: 2.18% |
| O=C(Nc1cccc(S(=O)(=O)NC2=NCCC2)c1)c1cc(-c2ccco2)nc2ccccc12 | inactive: -0.568% |
| CCN=C1SC(CC(=O)Nc2ccc3c(c2)OCO3)C(=O)N1CC (configuration not stated) | inactive: 12.9% |
| COc1cc(OC)cc(-c2cn[nH]c2N)c1 | inactive: -15.2% |
| COc1cccc(C=Nc2ccc3c(c2)CCC3)c1O | inactive: -11.5% |
| O=c1[nH]c(N2CCN(Cc3ccc4c(c3)OCO4)CC2)nc2c1CCCC2 | inactive: -0.544% |
| N#CCCN(C(=O)COC(=O)Cc1ccc(Br)cc1)c1ccccc1 | inactive: -4.99% |
| O=C(c1ccccc1F)N1CCN(Cc2nc3sc4c(c3c(=O)[nH]2)CCCC4)CC1 | inactive: 21.2% |
| CCOc1cc(NC(=S)NCc2ccco2)c(OCC)cc1NC(=O)C1CC1 | inactive: 12.6% |
| CCOC(=O)c1c(CSc2cccs2)n(C)c2cc(Br)c(O)c(CN(C)C)c12 | inactive: 0.118% |

— PubChem BioAssay AID1347073 (National Center for Advancing Translational Sciences (NCATS), 2019)
